Source: PubChem BioAssay AID504333 (National Center for Advancing Translational Sciences (NCATS), 2011)
The whole screen tested about 360,000 compounds, of which about 16,000 (4.4%) were called active. Inconclusive results, whose numbers are uncertain, are shown with a selection of clear calls. Calls follow the shape of the dose curve; as a rule, active = well fitted inhibition curve with a large enough effect; inconclusive = small, poorly fitted or top-dose-only effect; inactive = no such curve, though single readings can be large or run the other way. Potencies beside an inconclusive call are fits to weak or partial responses and may not hold up.

Target: Bromodomain adjacent to zinc finger domain protein 2B (Homo sapiens) (UniProt Q9UIF8)
Assay: qHTS Assay for Inhibitors of BAZ2B; also: nearly all actives have a fitted effect of over 60% in size
Settings: AlphaScreen BAZ2B-H3K14Ac peptide displacement; activity change, negative = inhibition: at 114 µM (top of the series)
Method in brief: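 BAZ2B (50 nM) with biotin-H3(5-23)K14Ac peptide (50 nM) in PBS pH 7.4, 0.01% Tween-20, preformed 30 min, then compound 30 min at room temperature; top concentration 110uM. AlphaScreen streptavidin donor/nickel chelate acceptor beads (10 ug/mL final), 20 min dark, signal read.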
% is scaled to controls: 0 for no effect and ±100 for the full control effect; potency is read from the fitted curve at half-maximal effect; tags tell the direction and shape of the fitted curve.

Sequence of UniProt Q9UIF8 (Q9UIF8 whole entry, looked up, the tested form may be a part): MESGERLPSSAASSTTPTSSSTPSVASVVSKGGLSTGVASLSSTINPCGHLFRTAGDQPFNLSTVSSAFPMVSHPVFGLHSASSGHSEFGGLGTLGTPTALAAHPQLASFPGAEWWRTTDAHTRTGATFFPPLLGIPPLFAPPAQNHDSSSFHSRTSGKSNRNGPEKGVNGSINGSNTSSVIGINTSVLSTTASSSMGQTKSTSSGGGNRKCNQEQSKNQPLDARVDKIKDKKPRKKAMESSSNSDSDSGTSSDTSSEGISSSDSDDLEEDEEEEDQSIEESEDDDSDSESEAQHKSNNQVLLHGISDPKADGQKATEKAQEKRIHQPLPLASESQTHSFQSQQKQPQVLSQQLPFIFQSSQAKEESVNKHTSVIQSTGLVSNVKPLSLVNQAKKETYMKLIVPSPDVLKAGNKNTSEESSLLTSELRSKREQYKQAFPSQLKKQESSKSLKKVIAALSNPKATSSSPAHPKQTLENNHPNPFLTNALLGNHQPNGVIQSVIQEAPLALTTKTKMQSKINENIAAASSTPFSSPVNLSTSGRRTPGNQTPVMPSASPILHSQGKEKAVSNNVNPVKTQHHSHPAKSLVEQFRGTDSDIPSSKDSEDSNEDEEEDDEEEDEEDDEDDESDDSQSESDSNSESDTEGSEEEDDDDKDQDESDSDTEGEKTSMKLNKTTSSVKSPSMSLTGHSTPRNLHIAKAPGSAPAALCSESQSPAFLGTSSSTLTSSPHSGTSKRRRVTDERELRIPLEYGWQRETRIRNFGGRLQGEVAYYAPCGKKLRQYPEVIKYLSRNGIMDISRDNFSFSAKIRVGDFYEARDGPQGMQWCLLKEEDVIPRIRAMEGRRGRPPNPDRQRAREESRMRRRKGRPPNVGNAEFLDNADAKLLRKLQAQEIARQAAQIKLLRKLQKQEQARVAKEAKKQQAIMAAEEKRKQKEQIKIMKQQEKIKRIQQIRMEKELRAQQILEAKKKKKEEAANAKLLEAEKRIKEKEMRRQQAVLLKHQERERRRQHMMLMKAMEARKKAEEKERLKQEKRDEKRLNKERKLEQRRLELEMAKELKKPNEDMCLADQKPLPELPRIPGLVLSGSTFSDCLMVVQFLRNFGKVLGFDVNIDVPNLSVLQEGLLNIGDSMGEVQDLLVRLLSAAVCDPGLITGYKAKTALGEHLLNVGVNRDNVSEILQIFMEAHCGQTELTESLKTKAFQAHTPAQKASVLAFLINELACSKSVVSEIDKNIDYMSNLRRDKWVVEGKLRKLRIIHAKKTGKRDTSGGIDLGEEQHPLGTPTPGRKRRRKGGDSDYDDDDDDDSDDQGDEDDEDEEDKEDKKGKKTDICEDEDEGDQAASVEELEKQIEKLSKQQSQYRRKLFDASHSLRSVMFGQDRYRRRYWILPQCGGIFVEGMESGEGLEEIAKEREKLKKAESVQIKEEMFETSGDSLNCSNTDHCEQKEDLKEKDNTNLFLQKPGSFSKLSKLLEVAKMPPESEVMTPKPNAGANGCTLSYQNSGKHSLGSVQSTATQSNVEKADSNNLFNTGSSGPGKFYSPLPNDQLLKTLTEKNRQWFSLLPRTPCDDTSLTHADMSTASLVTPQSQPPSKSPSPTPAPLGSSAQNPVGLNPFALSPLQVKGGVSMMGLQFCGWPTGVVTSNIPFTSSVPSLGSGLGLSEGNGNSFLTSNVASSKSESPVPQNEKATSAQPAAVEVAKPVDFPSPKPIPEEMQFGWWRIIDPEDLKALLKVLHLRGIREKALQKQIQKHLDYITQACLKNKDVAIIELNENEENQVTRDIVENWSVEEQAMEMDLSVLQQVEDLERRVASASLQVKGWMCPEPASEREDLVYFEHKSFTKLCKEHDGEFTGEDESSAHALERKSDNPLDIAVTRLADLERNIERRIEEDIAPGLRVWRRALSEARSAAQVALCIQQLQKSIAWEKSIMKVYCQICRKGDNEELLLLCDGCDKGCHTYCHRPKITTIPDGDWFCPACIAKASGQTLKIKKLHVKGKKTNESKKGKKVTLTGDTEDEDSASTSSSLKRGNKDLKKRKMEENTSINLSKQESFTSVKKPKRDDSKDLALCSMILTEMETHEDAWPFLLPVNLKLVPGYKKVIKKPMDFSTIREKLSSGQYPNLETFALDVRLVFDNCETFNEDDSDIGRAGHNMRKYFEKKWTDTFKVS

Compound | activity change, negative = inhibition | Potency
O=C(CCCc1nc(-c2ccccc2)no1)NCc1cccnc1 | inactive: -30.2% | 
O=C(COc1ccc(Cl)cc1)Nc1ccc(C(=O)O)cc1NC(=O)COc1ccc(Cl)cc1 |  | active: 50.1 µM
Cc1ccc(NC(=O)c2cc(S(=O)(=O)N3CCC(C)CC3)cn2C)cc1Cl | inactive: 5.39% | 
COc1cc2c(cc1OC)CN(C(=O)c1oc3ccccc3c1C)CC2 |  | inconclusive: 70.8 µM [inhibitor, single point]
CN(CC(=O)Nc1ccccc1C(F)(F)F)C(=O)c1cccc(-n2cccc2)c1 |  | inconclusive: 56.2 µM [inhibitor, partial curve]
COc1ccc(OC)c(NC(=O)CSc2nc3ccccc3c(=O)n2CCNC(C)=O)c1 | inactive: 3.13% | 
O=C(O)CCCNC(=O)OCc1ccccc1 | inactive: 3.44% | 
O=C(c1ccc2[nH]ccc2c1)N1CCCC(Nc2ccccc2)C1 (configuration not stated) |  | inconclusive: 79.4 µM [inhibitor, single point]
O=C(Cc1ccc(Cl)cc1)Nc1ccc(N2CCCC2)cc1 | inactive: -2.88% | 
COc1ccc(-n2c(C)c(C)c3c(NCCO)ncnc32)cc1 |  | inconclusive: 70.8 µM [inhibitor, single point]
CC1=NN(c2ccc(C)c(C)c2)C(=O)/C1=C\C=C\c1ccc([N+](=O)[O-])o1 |  | inconclusive: 10 µM [inhibitor, full curve]
CN1C(=O)C(O)(CC(=O)c2ccccc2O)c2cc(Br)ccc21 (configuration not stated) |  | inconclusive: 89.1 µM [inhibitor, single point]
CNC(=O)CCc1[nH]c2ccccc2c1Sc1ccccc1 |  | inconclusive: 79.4 µM [inhibitor, partial curve]
O=C(CNCc1cccs1)Nc1ccc(N2CCCCCC2)cc1 |  | active: 22.4 µM
CN(C)c1nc(NCc2ccccc2)nc(N/N=C/c2ccccc2F)n1 |  | inconclusive: 50.1 µM [inhibitor, partial curve]
Oc1ccccc1/C=N/NC(=S)NC1CC2C=CC1C2 (configuration not stated) |  | active: 28.2 µM
CC1(c2ccc(OC(F)F)cc2)NC(=O)N(CC(=O)Nc2ccc(Cl)cc2F)C1=O (configuration not stated) | inactive: -0.767% | 
COc1ccc(OC)c(CNC(=O)c2cc(S(=O)(=O)N3CCC(C)CC3)cn2C)c1 |  | inconclusive: 79.4 µM [inhibitor, partial curve]
NS(=O)(=O)c1ccc(CNC(=S)Nc2ccc(F)c(Cl)c2)cc1 | inactive: -0.687% | 
O=S(=O)(c1ccc(NC(=S)NN=C(Cc2ccccc2)Cc2ccccc2)cc1)N1CCOCC1 |  | active: 50.1 µM
CC(C)(C)C(=O)CSc1nc2ncc(Br)cc2[nH]1 | inactive: -13.7% | 
CCOC(=O)C1CCN(C(=O)c2ccccc2NS(=O)(=O)c2ccc(F)c(F)c2)CC1 | inactive: 0.678% | 
